The list shows a part of the results.

T1: UNK ZnF1-6 (called full-length) (human, UniProt Q9C0B0 30-357)
T1 sequence: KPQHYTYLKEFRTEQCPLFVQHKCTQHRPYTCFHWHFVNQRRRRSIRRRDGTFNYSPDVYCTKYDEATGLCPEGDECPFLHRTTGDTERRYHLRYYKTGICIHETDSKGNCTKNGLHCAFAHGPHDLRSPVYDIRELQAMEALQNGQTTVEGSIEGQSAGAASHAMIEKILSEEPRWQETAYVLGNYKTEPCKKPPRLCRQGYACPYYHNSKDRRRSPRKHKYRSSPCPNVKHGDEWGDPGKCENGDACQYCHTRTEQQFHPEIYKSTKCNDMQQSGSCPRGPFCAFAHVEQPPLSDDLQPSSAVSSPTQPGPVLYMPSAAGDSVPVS

B1: chr5:16663783:16663884:-|3pUTR|ENSG00000145555|msi1|FALSE|bound_elsewhere (ssRNA)
RNA: GGGAGUUCUACAGUCCGACGAUCUGAGGAUACAAAAUUCACAGAUGCUCAAGUCCCUGCUAUACAGUGGUAUAAUAUUUGCAUAGAACCUGCACACAUCUUUCCUUACCCUUUAAAUCAUCUCCAGGUUACAGAUACCUAGCACAACAGAGGAUUGAGCAUCA
B2: chr1:32196422:32196614:+|3pUTR|ENSG00000084652|msi1|FALSE|unique (ssRNA)
RNA: GGGAGUUCUACAGUCCGACGAUCACAGUUGUUUCUGUGUCCUGUUCUACCCCCACUCCAGUACAUAACUACUAUGUACUGUGUAGAGCCAUUCUAUAUGCUGAAUGUUCUGCUGUUGCAAACUUGCCAGGGUAUUAGCCAGUGCAACAGAGGAUUGAGCAUCA
B3: chr21:31659700:31659757:+|5pUTR|ENSG00000142168|msi1_unk|total|mutant (ssRNA)
RNA: GGGAGUUCUACAGUCCGACGAUCCGAGGCGCGGAGGUCUGGCCUAUAAAGCCGUCGCGGAGACGGGGUGCUGGUUUGCGUCGCCGUCUCCUGCAGCGUCUGGGGUUUCCGUUGCAGUCCUCGGAACCAGGACCUCGGCGUGGCCAACAGAGGAUUGAGCAUCA
B4: chr1:88684422:88684524:+|5pUTR|ENSG00000065243|unk|total|mutant (ssRNA)
RNA: GGGAGUUCUACAGUCCGACGAUCUCGAUGAACCGGACGGAAUAAGCCGCGCCUCCAGCAGGGGCUGCGCCUCCAUGAAUCCCCCGUUGUUUUUUUUUUUUUCUUUCUCUCCCCUCUCCUCACCCCCACCCCGAGCCCCGUCCCCAACAGAGGAUUGAGCAUCA
B5: ENSG00000136451:be:win_3201|3pUTR|ENSG00000136451|bound_else_gene|NA|bound_elsewhere_windowed (ssRNA)
RNA: GGGAGUUCUACAGUCCGACGAUCAACAGUUCUAGGGGGUUGAACUACAUAGUAAAAAAAUAAAAUAAAUAGUACUUAGUGUAAAAUAAUUUUAUAAAUGAUCUUUUGUACUUUAGGACAUUAAAUUGUACAACUUUUGUAUAUCAACAGAGGAUUGAGCAUCA
B6: chr15:50499333:50499363:+|3pUTR|ENSG00000138592|msi1_unk|total|mutant (ssRNA)
RNA: GGGAGUUCUACAGUCCGACGAUCCAGGUACCAUUUAUUUCAAAACAACUUUUUCCGUCUGCUCCAAAGUUAAAAUAAUUAACCCGCUAAGCAUUAUUAUUCGACUGGUCUAAAAACUAUUGUUAUCUUUUUUUUUUCCUUUUCCAACAGAGGAUUGAGCAUCA
B7: chr19:35623844:35623945:+|3pUTR|ENSG00000249115|unk|total|mutant (ssRNA)
RNA: GGGAGUUCUACAGUCCGACGAUCUGUGUCAAGAGCAGCGGCGGUGACGCAGGUGCCGAGAUUUGUCAGAGCUCAUGCCGUUGCCGUCUUAAGGCCUGUGCAUUUCACUGCGUGGGUUACUCAAUUUAUAAAGCAAAGCCCUUACAACAGAGGAUUGAGCAUCA
B8: chr10:51697484:51697585:-|3pUTR|ENSG00000177613|unk|FALSE|unique (ssRNA)
RNA: GGGAGUUCUACAGUCCGACGAUCAAUGGGUGCAAAAAGCUGACUUCUGUAUCCCCACACUUGGAUUAGGGUUUCCCUCCUCCUAGAACCUAAUCUUAUUUUUUGUUCUUUUUCUUUCUUUCUGUUUUCCUUUUUUUUUUAAUUCAACAGAGGAUUGAGCAUCA
B9: chr11:27368498:27368690:-|CDS|ENSG00000205213|msi1|total|mutant (ssRNA)
RNA: GGGAGUUCUACAGUCCGACGAUCACCCCUUUGUUUGCCAUUUCCUACAGGUGAAACGCCAUCAUCCGGAUUCACUGUAACGUCCGUGCUAUUAAACUCACCCGCAUUUUUAUUAAUGGCCGUUAUCUACACUAAACUAUACUGCAACAGAGGAUUGAGCAUCA
B10: ENSG00000136451:be:win_2401|3pUTR|ENSG00000136451|bound_else_gene|NA|bound_elsewhere_windowed (ssRNA)
RNA: GGGAGUUCUACAGUCCGACGAUCAUUCCUAUUUAGGAGCCAAGGAGUACUUUGGAACAGUACAAAUAUAUUGCUUUAAAUUGGAAGACGCUGGAGGCACUGGGAUGUGAUAUGCCCCUCUCUCUCCCAAUCAGAGCCUGUUGACAACAGAGGAUUGAGCAUCA
B11: ENSG00000198589:be:win_501|CDS|ENSG00000198589|bound_else_gene|NA|bound_elsewhere_windowed (ssRNA)
RNA: GGGAGUUCUACAGUCCGACGAUCCGAGCUAAAGCUUUUCUUCAGUAAACUUCAAGGAGAUAAAGGACGAUGGCCUCCACAUGCUGGGAAGUUGCUGUCUGUGUUAAAGCAUAUGCCUCAGAAGUAUGGUCCUGAUGCCUUUUUCAACAGAGGAUUGAGCAUCA
B12: chr2:73268725:73269630:-|CDS|ENSG00000163013|control|control|control (ssRNA)
RNA: GGGAGUUCUACAGUCCGACGAUCCGAGAAGGAGGAGCUGGAGGAGCGCGCGUCUGAGCUCUCCCGCCAGGUGGACGUGAGCGUAGAGCUGCUGGCCUCACUCAAGCAGGACCUGGUGCACAAGGAACAGGAGCUGAGCCGCAACAACAGAGGAUUGAGCAUCA
B13: chr20:59325757:59325866:+|3pUTR|ENSG00000124205|unk|FALSE|unique (ssRNA)
RNA: GGGAGUUCUACAGUCCGACGAUCUUAUGUGGAUCUGUUCAAAGUAGUCACUGUAUAUACGUAUAGAGAGGUAGAUAGGUAGGUAGAUUUUAAAUUGCAUUCUGAAUACAAACUCAUACUCCUUAGAGCUUGAAUUACAUUUUUCAACAGAGGAUUGAGCAUCA
B14: chr12:123662440:123662541:+|3pUTR|ENSG00000111358|unk|FALSE|unique (ssRNA)
RNA: GGGAGUUCUACAGUCCGACGAUCAAUGGAAAUCACAAUUUUAAGUCUAGGAAAUAAAGUAUUAUAUAUACUUUCAAACAAGCUAGCAAGGCUUUUAUUAUUACUUUUUUAUUUGAAAUAUCUUAUAUAUUUGGUUAGUUCUGUCAACAGAGGAUUGAGCAUCA
B15: chr1:205790044:205790145:-|3pUTR|ENSG00000133065|msi1|total|mutant (ssRNA)
RNA: GGGAGUUCUACAGUCCGACGAUCAGAUUCUUCUGCCUCUUUCUCCUUUCCAGACCCCUACUCUGUGCAGUGCUGACCACAGCCCGAGCCACCGCCCCAUUGCUCAACCAGUAUUUAUUUCCCUAAACGACCCUUCCUCACAUUCAACAGAGGAUUGAGCAUCA
B16: ENSG00000107863:be:win_851|CDS|ENSG00000107863|bound_else_gene|NA|bound_elsewhere_windowed (ssRNA)
RNA: GGGAGUUCUACAGUCCGACGAUCUGUUAUCCAAUAGAAACAACCAUACAGGUCCUUCACAUAGAACUGAAGAAGUGAGGUAUGGCGUGAGUGAGCAGACCUCUUUAAAAACAGUGUCAAGAACCACAUCACCACCAUUAUCAACAACAGAGGAUUGAGCAUCA
B17: chr10:78035461:78035635:+|CDS|ENSG00000138326|unk|total|mutant (ssRNA)
RNA: GGGAGUUCUACAGUCCGACGAUCCAUUGAUGUCCUUCACCCCGGGAAGGCGACAGUGCCUAAGACAGAAAUUCGGGAAAAACCCGCCAAAAUGUACAAGACCACACCGGAUGUCAUCUUUGUAUUUGGAUUCAGAACUCAUUUCAACAGAGGAUUGAGCAUCA
B18: ENSG00000198589:be:win_5201|CDS|ENSG00000198589|bound_else_gene|NA|bound_elsewhere_windowed (ssRNA)
RNA: GGGAGUUCUACAGUCCGACGAUCCAGUCUCACCUUCCACCUUUAAUACAAGCAUACCUACCAAUGCUGUCAGUGUGGUUUCCUCAGUAGAUUCAGCCCAAGCCUCAGAUAUGGGAGGAGAAUCACCAGGCAGUAGAUCAUCUACAACAGAGGAUUGAGCAUCA
B19: chr6:36855602:36855703:-|3pUTR|ENSG00000137168|msi1|FALSE|unique (ssRNA)
RNA: GGGAGUUCUACAGUCCGACGAUCGUCAUGAAGCUUAGGAGGCCUGGCAUCUUGGGUGAGUUAGAGAUGGAAGUACAUUUUAAUAGGAUGCUUCUUUUCUCUUCCCCCAGUGCCUAGGUUGCCAGAGCAUUUGCACAAAUGCCCCAACAGAGGAUUGAGCAUCA
B20: chr1:233671823:233671924:+|3pUTR|ENSG00000135750|msi1|FALSE|unique (ssRNA)
RNA: GGGAGUUCUACAGUCCGACGAUCUGCUGCUGUGGUUAGAAGCAGAUUUUAUACUUUUAACUGGAAACUUUGGGGUUUGCAUUUAGAUCAUUUAGCUGAUGGCUAAAUAGCAAAAUUUAUAUUUAGAAGCAAAAAAAAAAAGCACAACAGAGGAUUGAGCAUCA
B21: chr19:12699786:12699848:-|3pUTR|ENSG00000105576|msi1_unk|total|mutant (ssRNA)
RNA: GGGAGUUCUACAGUCCGACGAUCCCUGCUCCAUCCAUCCCUCCUGGGCGCCAGACCCUCCAUCCAAGCCCUGUGUCUUUCCACCGUCAGGGUCAGGCCCUGCAUCUAUUCCAAGGGGCACUCAGUACACAUUCCAUAAAUCCGCAACAGAGGAUUGAGCAUCA
B22: chr10:62806226:62806343:+|3pUTR|ENSG00000181915|unk|FALSE|unique (ssRNA)
RNA: GGGAGUUCUACAGUCCGACGAUCCUACCCCUUAGUUAAAUAGGGUUUAUUUUCCACUCAUGCCCUUAUGCCUUUUUUUCUUAUAGUUUUUUAACUUAUUGACUGUGCAUGACCCAGUGGUUUGAAUUGUUUUUAGUUCAAGUCCAACAGAGGAUUGAGCAUCA

The test concerns the target T1, UNK ZnF1-6 (called full-length). Put plainly: nsRBNS (natural sequence RNA bind-n-seq); RBNS binding buffer (assumed for nsRBNS): 25 mM Tris pH 7.5, 150 mM KCl, 3 mM MgCl2, 0.01% Triton X-100, 500 ug/ml BSA, 20 U/ml SUPERase-In, 4 C; UNK is unkempt and MSI1 is Musashi-1; names of the RNAs are library labels; protein concentration not given here; high values mean tight binding.
With B1, the binding signal was found to be 0.456 enrichment R.
B2 had a binding signal of 0.631 enrichment R.
B3 returned a binding signal of 0.536 enrichment R.
To B4 belongs 3.43 enrichment R; to B5, 96.7 enrichment R.
As to B6, the binding signal amounted to 4.54 enrichment R.
The value for B7 was 0.5 enrichment R.
The value for B8 was 3.92 enrichment R.
Molecule B9 gave a binding signal of 0.558 enrichment R.
To B10 belongs 0.588 enrichment R.
The value for B11 was 0.487 enrichment R; that for B12 was 0.934 enrichment R; that for B13 was 20.3 enrichment R.
The molecule B14 returned a binding signal of 12.5 enrichment R.
The value for B15 was 1.12 enrichment R.
To B16 belongs 0.502 enrichment R.
The value for B17 was 0.43 enrichment R; that for B18 was 0.697 enrichment R; that for B19 was 1.03 enrichment R.
In turn, B20 registered a binding signal of 5.04 enrichment R.
The value for B21 was 0.878 enrichment R; that for B22 was 15.8 enrichment R.

(Values after paper PMC12136788.)
